Source: patent publication US20250361299A1 (published 2025)

T1: Human CD3 protein (human, UniProt P07766 23-126)
T1 chain: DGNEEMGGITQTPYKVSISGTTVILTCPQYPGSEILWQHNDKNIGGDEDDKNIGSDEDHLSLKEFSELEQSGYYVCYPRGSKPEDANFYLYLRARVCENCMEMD

B1: 1.2 proBiTE (bispecific antibody)
heavy: QDGNEEMGGITQTPYGGGSGGGSGGGSGLSGRSDNHGGSEVQLVESGGGLVQPGGSLRLSCAASGFTFNTYAMNWVRQAPGKGLEWVARIRSKYNNYATYYADSVKGRFTISRDDSKNTLYLQMNSLRAEDTAVYYCARHGNFGSSYVSYFAYWGQGTTVTVSSGGGSSGGGGSGGGGSEVQLVETGGGVVQPGRSLRLSCAASGFTFSSYAMHWVRQAPGKGLEWVAVISYDGSNKYYADSVKGRFTISRDNSKNTLYLQMNSLRAEDTAVYYCARGYVARGDFDYWGQGTLVTVSSASTKGPSVFPLAPSSKSTSGGTAALGCLVKDYFPEPVTVSWNSGALTSGVHTFPAVLQSSGLYSLSSVVTVPSSSLGTQTYICNVNHKPSNTKVDKKVEPKS[human IgG1 Fc with T366L Y407H (EU numbers) cut from this listing]
light: EIVVTQSPATLSVSPGERATLSCRSSTGAVTTSNYANWVQQKPGQAPRGLIGGANKRAPGVPARFSGSLSGDEATLTISSLQSEDFAVYYCALWYSNLWVFGQGTKLEIKGGGGSGGGGSGGGGSDVVMTQSPSTLSASVGDRVTITCRASQSMSRWLAWYQQKPGKGPKLLIYATSTLQSGVPSRFSGSGSGTEFTLTISSLQPEDFATYYCQQLDSFPFSFTFGPGTKVDLKRTVAAPSVFIFPPSDEQLKSGTASVVCLLNNFYPREAKVQWKVDNALQSGNSQESVTEQDSKDSTYSLSSTLTLSKADYEKHKVYACEVTHQGLSSPVTKSFNRGE[human IgG1 Fc with T366L Y407H (EU numbers) cut from this listing]
B2: 1.5 proBiTE (bispecific antibody)
heavy: B1 heavy
light: QDGNEEMGGITQTPYGGGSGGGSGGGSGLSGRSDNHGGSEIVVTQSPATLSVSPGERATLSCRSSTGAVTTSNYANWVQQKPGQAPRGLIGGANKRAPGVPARFSGSLSGDEATLTISSLQSEDFAVYYCALWYSNLWVFGQGTKLEIKGGGGSGGGGSGGGGSDVVMTQSPSTLSASVGDRVTITCRASQSMSRWLAWYQQKPGKGPKLLIYATSTLQSGVPSRFSGSGSGTEFTLTISSLQPEDFATYYCQQLDSFPFSFTFGPGTKVDLKRTVAAPSVFIFPPSDEQLKSGTASVVCLLNNFYPREAKVQWKVDNALQSGNSQESVTEQDSKDSTYSLSSTLTLSKADYEKHKVYACEVTHQGLSSPVTKSFNRGE[human IgG1 Fc with T366L Y407H (EU numbers) cut from this listing]
B3: 1.2 proBiTE after uPA digestion (bispecific antibody)
heavy: SDNHGGSEVQLVESGGGLVQPGGSLRLSCAASGFTFNTYAMNWVRQAPGKGLEWVARIRSKYNNYATYYADSVKGRFTISRDDSKNTLYLQMNSLRAEDTAVYYCARHGNFGSSYVSYFAYWGQGTTVTVSSGGGSSGGGGSGGGGSEVQLVETGGGVVQPGRSLRLSCAASGFTFSSYAMHWVRQAPGKGLEWVAVISYDGSNKYYADSVKGRFTISRDNSKNTLYLQMNSLRAEDTAVYYCARGYVARGDFDYWGQGTLVTVSSASTKGPSVFPLAPSSKSTSGGTAALGCLVKDYFPEPVTVSWNSGALTSGVHTFPAVLQSSGLYSLSSVVTVPSSSLGTQTYICNVNHKPSNTKVDKKVEPKS[human IgG1 Fc with T366L Y407H (EU numbers) cut from this listing]
light: B1 light
B4: 1.4.1 proBiTE after uPA digestion (bispecific antibody)
heavy: B3 heavy
light: B1 light
B5: 1.4 proBiTE (bispecific antibody)
heavy: QDGNEEMGGIGGGSQDGNEEMGGGGGSGGGSGGGSGLSGRSDNHGGSEVQLVESGGGLVQPGGSLRLSCAASGFTFNTYAMNWVRQAPGKGLEWVARIRSKYNNYATYYADSVKGRFTISRDDSKNTLYLQMNSLRAEDTAVYYCARHGNFGSSYVSYFAYWGQGTTVTVSSGGGSSGGGGSGGGGSEVQLVETGGGVVQPGRSLRLSCAASGFTFSSYAMHWVRQAPGKGLEWVAVISYDGSNKYYADSVKGRFTISRDNSKNTLYLQMNSLRAEDTAVYYCARGYVARGDFDYWGQGTLVTVSSASTKGPSVFPLAPSSKSTSGGTAALGCLVKDYFPEPVTVSWNSGALTSGVHTFPAVLQSSGLYSLSSVVTVPSSSLGTQTYICNVNHKPSNTKVDKKVEPKS[human IgG1 Fc with T366L Y407H (EU numbers) cut from this listing]
light: B1 light
B6: 1.3 proBiTE (bispecific antibody)
heavy: QDGNEEMGGITQTPYKVSISGTGGGSGGGSGGGSGLSGRSDNHGGSEVQLVESGGGLVQPGGSLRLSCAASGFTFNTYAMNWVRQAPGKGLEWVARIRSKYNNYATYYADSVKGRFTISRDDSKNTLYLQMNSLRAEDTAVYYCARHGNFGSSYVSYFAYWGQGTTVTVSSGGGSSGGGGSGGGGSEVQLVETGGGVVQPGRSLRLSCAASGFTFSSYAMHWVRQAPGKGLEWVAVISYDGSNKYYADSVKGRFTISRDNSKNTLYLQMNSLRAEDTAVYYCARGYVARGDFDYWGQGTLVTVSSASTKGPSVFPLAPSSKSTSGGTAALGCLVKDYFPEPVTVSWNSGALTSGVHTFPAVLQSSGLYSLSSVVTVPSSSLGTQTYICNVNHKPSNTKVDKKVEPKS[human IgG1 Fc with T366L Y407H (EU numbers) cut from this listing]
light: B1 light
B7: 1.4 proBiTE after uPA digestion (bispecific antibody)
heavy: B3 heavy
light: B1 light
B8: 1.1 proBiTE (bispecific antibody)
heavy: QDGNEEMGGIGGGSGGGSGGGSGLSGRSDNHGGSEVQLVESGGGLVQPGGSLRLSCAASGFTFNTYAMNWVRQAPGKGLEWVARIRSKYNNYATYYADSVKGRFTISRDDSKNTLYLQMNSLRAEDTAVYYCARHGNFGSSYVSYFAYWGQGTTVTVSSGGGSSGGGGSGGGGSEVQLVETGGGVVQPGRSLRLSCAASGFTFSSYAMHWVRQAPGKGLEWVAVISYDGSNKYYADSVKGRFTISRDNSKNTLYLQMNSLRAEDTAVYYCARGYVARGDFDYWGQGTLVTVSSASTKGPSVFPLAPSSKSTSGGTAALGCLVKDYFPEPVTVSWNSGALTSGVHTFPAVLQSSGLYSLSSVVTVPSSSLGTQTYICNVNHKPSNTKVDKKVEPKS[human IgG1 Fc with T366L Y407H (EU numbers) cut from this listing]
light: B1 light
B9: 1.4.1 proBiTE (bispecific antibody)
heavy: QDGNEEMGGGSQDGNEEMGGITQTPYGGGSGGGSGGGSGLSGRSDNHGGSEVQLVESGGGLVQPGGSLRLSCAASGFTFNTYAMNWVRQAPGKGLEWVARIRSKYNNYATYYADSVKGRFTISRDDSKNTLYLQMNSLRAEDTAVYYCARHGNFGSSYVSYFAYWGQGTTVTVSSGGGSSGGGGSGGGGSEVQLVETGGGVVQPGRSLRLSCAASGFTFSSYAMHWVRQAPGKGLEWVAVISYDGSNKYYADSVKGRFTISRDNSKNTLYLQMNSLRAEDTAVYYCARGYVARGDFDYWGQGTLVTVSSASTKGPSVFPLAPSSKSTSGGTAALGCLVKDYFPEPVTVSWNSGALTSGVHTFPAVLQSSGLYSLSSVVTVPSSSLGTQTYICNVNHKPSNTKVDKKVEPKS[human IgG1 Fc with T366L Y407H (EU numbers) cut from this listing]
light: B1 light
B10: 1.1 proBiTE after uPA digestion (bispecific antibody)
heavy: B3 heavy
light: B1 light
B11: 1.5 proBiTE after uPA digestion (bispecific antibody)
heavy: B1 heavy
light: B2 light

Experiments:
Human CD3 protein [1] = target: T1, Human CD3 protein; assay: ELISA; without uPA
Human CD3 protein [2] = target: T1, Human CD3 protein; assay: ELISA; with uPA

Binder | EC50 (Human CD3 protein [1]) [µg/mL] | EC50 (Human CD3 protein [2]) [µg/mL]
B1 | 25.2 | –
B2 | 50.1 | –
B3 | – | 0.591
B4 | – | 1.09
B5 | 48.8 | –
B6 | 24.4 | –
B7 | – | 0.73
B8 | 25.5 | –
B9 | 47 | –
B10 | – | 0.608
B11 | – | 6.78
